# Test results: patent publication US7816326B2, “Sulfur compounds as inhibitors of hepatitis C virus NS3 serine protease” (Schering Corporation, priority 2004, dated 2010)
# Read-outs that look alike come from different tables or passages of the source.
# Target: Recombinant heterodimeric HCV NS3/NS4A protease (strain 1a) (Hepatitis C virus genotype 1a, UniProt P27958)
# Test: Spectrophotometric assay for HCV protease inhibitory activity
# Format: biochemical
# Description: The present invention relates to novel HCV protease inhibitors. This utility can be manifested in their ability to inhibit the HCV NS2/NS4a serine protease.
# Assay for HCV Protease Inhibitory Activity:
# Spectrophotometric Assay: Spectrophotometric assay for the HCV serine protease can be performed on the inventive compounds by following the procedure described by R. Zhang et al, Analytical Biochemistry, 270 (1999) 268-275, the disclosure of which is incorporated herein by reference. The assay based on the proteolysis of chromogenic ester substrates is suitable for the continuous monitoring of HCV NS3 protease activity. The substrates are derived from the P side of the NS5A-NS5B junction sequence (Ac-DTEDVVX(Nva), where X=A or P) whose C-terminal carboxyl groups are esterified with one of four different chromophoric alcohols (3- or 4-nitrophenol, 7-hydroxy-4-methyl-coumarin, or 4-phenylazophenol). Illustrated below are the synthesis, characterization and application of these novel spectrophotometric ester substrates to high throughput screening and detailed kinetic evaluation of HCV NS3 protease inhibitors. Materials and Methods: Materials: Chemical reagents for assay related buffers are obtained from Sigma Chemical Company (St. Louis, Mo.). Reagents for peptide synthesis were from Aldrich Chemicals, Novabiochem (San Diego, Calif.), Applied Biosystems (Foster City, Calif.) and Perseptive Biosystems (Framingham, Mass.). Peptides are synthesized manually or on an automated ABI model 431A synthesizer (from Applied Biosystems). UV/VIS Spectrometer model LAMBDA 12 was from Perkin Elmer (Norwalk, Conn.) and 96-well UV plates were obtained from Corning (Corning, N.Y.). The prewarming block can be from USA Scientific (Ocala, Fla.) and the 96-well plate vortexer is from Labline Instruments (Melrose Park, Ill.). A Spectramax Plus microtiter plate reader with monochrometer is obtained from Molecular Devices (Sunnyvale, Calif.). […] Protein concentrations are determined by the Biorad dye method using recombinant HCV protease standards previously quantified by amino acid analysis. Prior to assay initiation, the enzyme storage buffer (50 mM sodium phosphate pH 8.0, 300 mM NaCl, 10% glycerol, 0.05% lauryl maltoside and 10 mM DTT) is exchanged for the assay buffer (25 mM MOPS pH 6.5, 300 mM NaCl, 10% glycerol, 0.05% lauryl maltoside, 5 μM EDTA and 5 μM DTT) utilizing a Biorad Bio-Spin P-6 prepacked column. Substrate Synthesis and Purification: The synthesis of the substrates is done as reported by R. Zhang et al, (ibid.) and is initiated by anchoring Fmoc-Nva-OH to 2-chlorotrityl chloride resin using a standard protocol (K. Barlos et al, Int. J. Pept. Protein Res., 37 (1991), 513-520). The peptides are subsequently assembled, using Fmoc chemistry, either manually or on an automatic ABI model 431 peptide synthesizer. […] The combined filtrate and DCM wash is evaporated azeotropically (or repeatedly extracted by aqueous Na2CO3 solution) to remove the acid used in cleavage. The DCM phase is dried over Na2SO4 and evaporated.
# The ester substrates are assembled using standard acid-alcohol coupling procedures (K. Holmber et al, Acta Chem. Scand., B33 (1979) 410-412). Peptide fragments are dissolved in anhydrous pyridine (30-60 mg/ml) to which 10 molar equivalents of chromophore and a catalytic amount (0.1 eq.) of para-toluenesulfonic acid (pTSA) were added. Dicyclohexylcarbodiimide (DCC, 3 eq.) is added to initiate the coupling reactions. Product formation is monitored by HPLC and can be found to be complete following 12-72 hour reaction at room temperature. Pyridine solvent is evaporated under vacuum and further removed by azeotropic evaporation with toluene.
# [1] = HCV NS3/NS4A protease, chromogenic ester substrate, 30° C., pH 6.5, read-out: Ki*
# [2] = HCV serine protease inhibitory activity ranges, read-out: Ki* Range
Compound,Ki [1],Ki [2]
CN(C1CC1)S(=O)(=O)CC1(NC(=O)N[C@H](C(=O)N2C[C@H]3[C@@H]([C@H]2C(=O)N[C@@H](CCC2CC2)C(=O)C(=O)NC2CC2)C3(C)C)C(C)(C)C)CCCCC1 [compound 1262],6 nM,< 75 nM
CCC[C@H](NC(=O)[C@@H]1[C@@H]2[C@H](CN1C(=O)[C@@H](NC(=O)NC1(CS(=O)(=O)N(C)C3CC3)CCCCC1)C(C)(C)C)C2(C)C)C(=O)C(=O)NC1CC1 [compound 1263],8 nM,< 75 nM
CCCC[C@H](NC(=O)[C@@H]1[C@@H]2[C@H](CN1C(=O)[C@@H](NC(=O)NC1(CS(=O)(=O)N(CC)CC)CCCCC1)C1(C)CCCCC1)C2(C)C)C(=O)C(=O)NC1CC1 [compound 1264],–,< 75 nM
CCN(CC)S(=O)(=O)CC1(NC(=O)N[C@H](C(=O)N2C[C@H]3[C@@H]([C@H]2C(=O)N[C@@H](CCC2CC2)C(=O)C(=O)NC2CC2)C3(C)C)C2(C)CCCCC2)CCCCC1 [compound 1265],–,< 75 nM
CCC[C@H](NC(=O)[C@@H]1[C@@H]2[C@H](CN1C(=O)[C@@H](NC(=O)NC1(CS(=O)(=O)N(CC)CC)CCCCC1)C1(C)CCCCC1)C2(C)C)C(=O)C(=O)NC1CC1 [compound 1266],–,< 75 nM
CCN(CC)S(=O)(=O)CC1(NC(=O)N[C@H](C(=O)N2C[C@H]3[C@@H]([C@H]2C(=O)N[C@@H](CC2CC2)C(=O)C(=O)NC2CC2)C3(C)C)C2(C)CCCCC2)CCCCC1 [compound 1267],–,< 75 nM
CCCC[C@H](NC(=O)[C@@H]1[C@@H]2[C@H](CN1C(=O)[C@@H](NC(=O)NC1(CS(=O)(=O)N(C)C3CC3)CCCCC1)C1(C)CCCCC1)C2(C)C)C(=O)C(=O)NC1CC1 [compound 1268],–,< 75 nM
CN(C1CC1)S(=O)(=O)CC1(NC(=O)N[C@H](C(=O)N2C[C@H]3[C@@H]([C@H]2C(=O)N[C@@H](CCC2CC2)C(=O)C(=O)NC2CC2)C3(C)C)C2(C)CCCCC2)CCCCC1 [compound 1269],–,< 75 nM
CCCC[C@H](NC(=O)[C@@H]1[C@@H]2[C@H](CN1C(=O)[C@@H](NC(=O)NC1(CS(=O)(=O)N(C)CC3CC3)CCCCC1)C(C)(C)C)C2(C)C)C(=O)C(=O)NC1CC1 [compound 1270],–,< 75 nM
CN(CC1CC1)S(=O)(=O)CC1(NC(=O)N[C@H](C(=O)N2C[C@H]3[C@@H]([C@H]2C(=O)N[C@@H](CCC2CC2)C(=O)C(=O)NC2CC2)C3(C)C)C(C)(C)C)CCCCC1 [compound 1271],–,< 75 nM
CCCC[C@H](NC(=O)[C@@H]1[C@@H]2[C@H](CN1C(=O)[C@@H](NC(=O)NC1(CS(=O)(=O)N(C)C(C)(C)C)CCCCC1)C(C)(C)C)C2(C)C)C(=O)C(=O)NC1CC1 [compound 1272],–,< 75 nM
CN(C(C)(C)C)S(=O)(=O)CC1(NC(=O)N[C@H](C(=O)N2C[C@H]3[C@@H]([C@H]2C(=O)N[C@@H](CCC2CC2)C(=O)C(=O)NC2CC2)C3(C)C)C(C)(C)C)CCCCC1 [compound 1273],–,< 75 nM
CCC[C@H](NC(=O)[C@@H]1[C@@H]2[C@H](CN1C(=O)[C@@H](NC(=O)NC1(CS(=O)(=O)N(C)C(C)(C)C)CCCCC1)C(C)(C)C)C2(C)C)C(=O)C(=O)NC1CC1 [compound 1274],–,< 75 nM
CN(C(C)(C)C)S(=O)(=O)CC1(NC(=O)N[C@H](C(=O)N2C[C@H]3[C@@H]([C@H]2C(=O)N[C@@H](CC2CC2)C(=O)C(=O)NC2CC2)C3(C)C)C(C)(C)C)CCCCC1 [compound 1275],–,< 75 nM
CCCC[C@H](NC(=O)[C@@H]1[C@@H]2[C@H](CN1C(=O)[C@@H](NC(=O)NC1(CS(=O)(=O)N(C)C(C)(C)C)CCCCC1)C1(C)CCCCC1)C2(C)C)C(=O)C(=O)NC1CC1 [compound 1276],–,< 75 nM
CN(C(C)(C)C)S(=O)(=O)CC1(NC(=O)N[C@H](C(=O)N2C[C@H]3[C@@H]([C@H]2C(=O)N[C@@H](CCC2CC2)C(=O)C(=O)NC2CC2)C3(C)C)C2(C)CCCCC2)CCCCC1 [compound 1277],–,< 75 nM

Compound,Ki [1],Ki [2]
CCC[C@H](NC(=O)[C@@H]1[C@@H]2[C@H](CN1C(=O)[C@@H](NC(=O)NC1(CS(=O)(=O)N(C)C(C)(C)C)CCCCC1)C1(C)CCCCC1)C2(C)C)C(=O)C(=O)NC1CC1 [compound 1278],–,< 75 nM
CN(C(C)(C)C)S(=O)(=O)CC1(NC(=O)N[C@H](C(=O)N2C[C@H]3[C@@H]([C@H]2C(=O)N[C@@H](CC2CC2)C(=O)C(=O)NC2CC2)C3(C)C)C2(C)CCCCC2)CCCCC1 [compound 1279],–,< 75 nM
CCC[C@H](NC(=O)[C@@H]1[C@@H]2[C@H](CN1C(=O)[C@@H](NC(=O)NC1(CS(=O)(=O)N(C)CC3CC3)CCCCC1)C(C)(C)C)C2(C)C)C(=O)C(=O)NC1CC1 [compound 1280],–,< 75 nM
CCCC[C@H](NC(=O)[C@@H]1[C@@H]2[C@H](CN1C(=O)[C@@H](NC(=O)NC1(CS(=O)(=O)N(CC)C3CC3)CCCCC1)C(C)(C)C)C2(C)C)C(=O)C(=O)NC1CC1 [compound 1281],–,< 75 nM
CCCC[C@H](NC(=O)[C@@H]1[C@@H]2[C@H](CN1C(=O)[C@@H](NC(=O)NC1(CS(=O)(=O)N(C)CC)CCCCC1)C(C)(C)C)C2(C)C)C(=O)C(=O)NC1CC1 [compound 1282],–,< 75 nM
CCN(C)S(=O)(=O)CC1(NC(=O)N[C@H](C(=O)N2C[C@H]3[C@@H]([C@H]2C(=O)N[C@@H](CCC2CC2)C(=O)C(=O)NC2CC2)C3(C)C)C(C)(C)C)CCCCC1 [compound 1283],–,< 75 nM
CCC[C@H](NC(=O)[C@@H]1[C@@H]2[C@H](CN1C(=O)[C@@H](NC(=O)NC1(CS(=O)(=O)N(C)CC)CCCCC1)C(C)(C)C)C2(C)C)C(=O)C(=O)NC1CC1 [compound 1284],–,< 75 nM
CCN(C)S(=O)(=O)CC1(NC(=O)N[C@H](C(=O)N2C[C@H]3[C@@H]([C@H]2C(=O)N[C@@H](CC2CC2)C(=O)C(=O)NC2CC2)C3(C)C)C(C)(C)C)CCCCC1 [compound 1285],–,< 75 nM
CCCC[C@H](NC(=O)[C@@H]1[C@@H]2[C@H](CN1C(=O)[C@@H](NC(=O)NC1(CS(=O)(=O)N(C)[C@@H](C)C3CC3)CCCCC1)C(C)(C)C)C2(C)C)C(=O)C(=O)NC1CC1 [compound 1286],–,< 75 nM
C[C@@H](C1CC1)N(C)S(=O)(=O)CC1(NC(=O)N[C@H](C(=O)N2C[C@H]3[C@@H]([C@H]2C(=O)N[C@@H](CCC2CC2)C(=O)C(=O)NC2CC2)C3(C)C)C(C)(C)C)CCCCC1 [compound 1287],–,< 75 nM
CCC[C@H](NC(=O)[C@@H]1[C@@H]2[C@H](CN1C(=O)[C@@H](NC(=O)NC1(CS(=O)(=O)N(C)[C@@H](C)C3CC3)CCCCC1)C(C)(C)C)C2(C)C)C(=O)C(=O)NC1CC1 [compound 1288],–,< 75 nM
C[C@@H](C1CC1)N(C)S(=O)(=O)CC1(NC(=O)N[C@H](C(=O)N2C[C@H]3[C@@H]([C@H]2C(=O)N[C@@H](CC2CC2)C(=O)C(=O)NC2CC2)C3(C)C)C(C)(C)C)CCCCC1 [compound 1289],–,< 75 nM
CCCC[C@H](NC(=O)[C@@H]1[C@@H]2[C@H](CN1C(=O)[C@@H](NC(=O)NC1(CS(=O)(=O)N(C)CC)CCCCC1)C1(C)CCCCC1)C2(C)C)C(=O)C(=O)NC1CC1 [compound 1290],–,< 75 nM
CCN(C)S(=O)(=O)CC1(NC(=O)N[C@H](C(=O)N2C[C@H]3[C@@H]([C@H]2C(=O)N[C@@H](CCC2CC2)C(=O)C(=O)NC2CC2)C3(C)C)C2(C)CCCCC2)CCCCC1 [compound 1291],–,< 75 nM
CCC[C@H](NC(=O)[C@@H]1[C@@H]2[C@H](CN1C(=O)[C@@H](NC(=O)NC1(CS(=O)(=O)N(C)CC)CCCCC1)C1(C)CCCCC1)C2(C)C)C(=O)C(=O)NC1CC1 [compound 1292],–,< 75 nM
CCN(C)S(=O)(=O)CC1(NC(=O)N[C@H](C(=O)N2C[C@H]3[C@@H]([C@H]2C(=O)N[C@@H](CC2CC2)C(=O)C(=O)NC2CC2)C3(C)C)C2(C)CCCCC2)CCCCC1 [compound 1293],–,< 75 nM
